Screen size: about 310,000 compounds; about 2,200 (0.71%) showed an effect of 50% or more. The effect is printed as a negative number. The list shows a part of the results.
biological target: human ether-à-go-go-related gene (hERG) potassium channel (human, UniProt Q12809); assay: primary screen, population patch clamp on CHO cells stably expressing hERG
Sequence (Q12809 whole entry, looked up): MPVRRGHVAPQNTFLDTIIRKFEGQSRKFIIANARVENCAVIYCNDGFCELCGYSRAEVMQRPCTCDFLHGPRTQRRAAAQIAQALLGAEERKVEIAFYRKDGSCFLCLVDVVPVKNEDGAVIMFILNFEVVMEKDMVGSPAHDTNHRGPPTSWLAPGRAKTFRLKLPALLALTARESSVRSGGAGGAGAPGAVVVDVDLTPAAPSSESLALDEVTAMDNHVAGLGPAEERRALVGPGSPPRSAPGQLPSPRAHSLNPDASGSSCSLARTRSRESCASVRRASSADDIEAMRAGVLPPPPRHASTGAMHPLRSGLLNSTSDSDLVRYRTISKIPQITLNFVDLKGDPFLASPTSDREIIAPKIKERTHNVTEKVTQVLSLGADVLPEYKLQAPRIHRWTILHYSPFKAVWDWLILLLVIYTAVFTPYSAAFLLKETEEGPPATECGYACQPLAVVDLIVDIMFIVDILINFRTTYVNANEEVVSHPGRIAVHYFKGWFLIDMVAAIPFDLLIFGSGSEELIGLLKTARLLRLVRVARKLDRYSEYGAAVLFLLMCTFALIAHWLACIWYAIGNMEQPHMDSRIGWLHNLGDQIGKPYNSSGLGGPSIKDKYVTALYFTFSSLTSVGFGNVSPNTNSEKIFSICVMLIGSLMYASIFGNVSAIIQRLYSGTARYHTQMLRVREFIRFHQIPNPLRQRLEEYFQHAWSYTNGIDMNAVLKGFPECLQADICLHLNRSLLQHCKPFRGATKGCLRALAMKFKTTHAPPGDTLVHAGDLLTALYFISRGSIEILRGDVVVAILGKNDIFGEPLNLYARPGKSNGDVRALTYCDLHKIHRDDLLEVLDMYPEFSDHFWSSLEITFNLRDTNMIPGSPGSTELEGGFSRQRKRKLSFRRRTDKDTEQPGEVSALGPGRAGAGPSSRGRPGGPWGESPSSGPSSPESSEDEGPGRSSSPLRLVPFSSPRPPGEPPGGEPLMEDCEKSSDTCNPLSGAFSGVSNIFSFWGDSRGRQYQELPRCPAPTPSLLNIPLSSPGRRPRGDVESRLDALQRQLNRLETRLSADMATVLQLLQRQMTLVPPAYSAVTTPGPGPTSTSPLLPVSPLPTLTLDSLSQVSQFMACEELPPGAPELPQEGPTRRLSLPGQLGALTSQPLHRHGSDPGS

| Structure (SMILES) | hERG current change (%, negative = inhibition) at 1uM |
| --- | --- |
| COc1ccccc1CN(CC(=O)NCc1ccc2c(c1)OCO2)C(=O)c1csnn1 | -0.0171% |
| O=C(O)c1ccc(CSC2CCCCC2)cc1 | 16.4% |
| Cc1ccc(C(=O)Nc2cccc3cccnc23)cc1Br | 7.95% |
| COc1ccccc1N1CCNC(C)C1=O.Cl (stereo not shown) | 15.4% |
| Cn1c(C2CC(=O)N(Cc3ccccc3)C2)nc2ccccc21 (stereo not shown) | 12.4% |
| CC(=C/c1ccc(C(C)C)cc1)/C=N/NC(=O)c1ccncc1 | 12.1% |
| CCn1c(SCC(=O)Nc2cccc(NC(=O)c3ccco3)c2)nnc1-c1cccs1 | -12.4% |
| CC(C)CCN(CCC(C)C)CC(O)Cn1c2ccccc2c(=O)c2ccccc21 (stereo not shown) | 10.7% |
| Cc1noc(C)c1C(=O)NCCc1ccccc1 | 1.22% |
| Cc1ccc(NC(=O)c2c(NC(=O)CCC(=O)O)sc3c2CCCCC3)cc1 | 3.98% |
| Cc1n[nH]c(=O)nc1NCc1ccco1 | 14.5% |
| Cc1ccc(-n2[nH]c(C)c(C=NCc3ccncc3)c2=O)cc1 | -27.7% |
| CCN(CC)CCNS(=O)(=O)c1ccc(C(=O)NN)cc1 | 4.77% |
| O=C(CCCc1ccccc1)Nc1nncs1 | 14.3% |
| O=C(NCc1ccco1)c1ccc(Cl)c(S(=O)(=O)Nc2ccccc2)c1 | 30.4% |
| CC1=C(C(=O)OCc2ccccc2)C(c2ccc([N+](=O)[O-])cc2)NC(=O)N1C (stereo not shown) | -10.8% |
| CCOc1cc(C(=O)Nc2cc(C)ccn2)cc(OCC)c1OCC | -4.75% |
| COc1ccc(S(=O)(=O)NC(C)C(=O)NCc2ccco2)cc1OC (stereo not shown) | 10.2% |
| Cc1ccccc1C(=O)Nc1nc(SCc2ccc(Cl)cc2)n[nH]1 | 1.95% |
| CCOC(=O)c1c(OCC)[nH]c2c1cc(O)c1ccccc12 | 13.8% |
| COC(=O)Cn1c(C)nc2ccccc21 | 7.8% |
| COc1ccc(NC(=O)CSc2nnc(CNC(=O)COc3ccc(Cl)cc3)o2)cc1 | 13.6% |
| O=C(NNC1CC(=O)N(c2ccc(Cl)cc2)C1=O)c1ccco1 (stereo not shown) | 15.8% |

| Structure (SMILES) | hERG current change (%, negative = inhibition) at 1uM |
| --- | --- |
| CCCCN(C)C(=O)c1cc2cc([N+](=O)[O-])cc(OC)c2oc1=O | 9.55% |
| COc1ccc(CCC(=O)OCC(=O)N2CCN(S(=O)(=O)c3ccc(C)cc3C)CC2)cc1 | 6.89% |
| COC(=O)c1ccccc1NCCO | 15.5% |
| O=C(C1=C(O)C(=O)N(CCOCCO)C1c1cccc([N+](=O)[O-])c1)c1cccs1 (stereo not shown) | 16.3% |
| CCOC(=O)c1cc(C)sc1/N=C/C1C(=O)NC(=S)NC1=O | 14% |
| COc1ccc(N(C2=NCCCS2)S(=O)(=O)c2ccc(C(C)(C)C)cc2)cc1 | 3.59% |
| S=C(NCCc1ccccc1)N1CCc2ccccc2C1 | 5.21% |
| CS(=O)(=O)N1CCCC(C(=O)NCCCN2CCN(Cc3ccccc3)CC2)C1 (stereo not shown) | -8.14% |
| Cc1nnc(N2CCOCC2)c2nn(-c3cccc(Cl)c3)c(C)c12 | 2.64% |
| O=C(Nc1ccc(-c2cn3ccsc3n2)cc1)C1CC1 | 3.88% |
| CC(=O)NCCn1c(SCC(=O)c2ccc(Cl)cc2)nc2ccccc2c1=O | 3.58% |
| Cn1nnnc1Sc1ncnc2scc(-c3cccc(S(C)(=O)=O)c3)c12 | 12.6% |
| O/N=C(/c1ccc(F)cc1)C1CC1c1c(F)cccc1Cl (stereo not shown) | 11.9% |
| CCOc1ccc(N(CC(=O)NCC2CCCO2)C(=O)CCC(=O)Nc2nccs2)cc1 (stereo not shown) | 18.8% |
| CCOC(=O)c1c(NC(=O)c2ccno2)c2cc([N+](=O)[O-])ccc2n1C | 13.4% |
| O=C(N/N=C/c1cccnc1)c1ccc2c(c1)OCO2 | 9.81% |
| CCCCC1(CN2CCCC2=O)C(=O)NC(=O)NC1=O | 10.7% |
| O=C(Nc1cccc(Cl)c1Cl)c1ccccc1OCC(=O)N1CCOCC1 | -2.07% |
| CN1CCN(CC(=O)Nc2nc3ccccc3s2)CC1.O=CO | 9.98% |
| CCOC(=O)COc1cc(-n2c(=S)[nH]c3cc(OC)c(OC)cc3c2=O)c(Cl)cc1Cl | 15.9% |
| Cc1c(N=Cc2nc3ccccc3n2C)c(=O)n(-c2ccccc2)n1C | -6.74% |
| Cc1cccc(Oc2ccccc2NC(=O)CN2C(=O)NC3(CCCC3)C2=O)c1 | 15.5% |
| O=c1c2ccccc2nc(/C=C/c2ccc(Cl)cc2)n1CCO | 18.2% |

| Structure (SMILES) | hERG current change (%, negative = inhibition) at 1uM |
| --- | --- |
| Cc1ccc(Cn2nnc3c(=O)[nH]c(C4CCCN(S(=O)(=O)c5ccc(F)cc5)C4)nc32)cc1 (stereo not shown) | 11.9% |
| Cc1nc2cc(NC(=O)CS(=O)(=O)c3ccc(F)cc3)ccc2s1 | -6.12% |
| O=C(NCc1nc2ccccc2[nH]1)C1=C[C@H](c2ccccc2)C[C@H](OCc2ccc(CO)cc2)O1 | 4.19% |
| Clc1cc(Cl)c(Cl)cc1Cl | 4.81% |
| COC(=O)c1[nH]c(C)c(/C(O)=C2\C(=O)C(=O)N(CCN(C)C)C2c2cccs2)c1C (stereo not shown) | 12.8% |
| Cc1cccc(NC(=O)c2c(C)nn(-c3ccccc3)c2Cl)c1 | -0.159% |
| CC(=O)c1cccc(NC(=O)COC(=O)COc2ccc(Cl)cc2)c1 | 16.4% |
| Cc1cc(OC(=O)c2cccc(Br)c2)c([N+](=O)[O-])c(=O)[nH]1 | 6.44% |
| O=C(Nc1ccc(F)cc1)Nc1ccc2c(c1)CCC2 | 15.1% |
| O=C(c1ccccc1[N+](=O)[O-])N1N=C(c2ccccc2)CC1(O)C(F)(F)F (stereo not shown) | 20.7% |
| CCOC(=O)C1(Cc2cccc(F)c2)CCN(Cc2nc(CC)[nH]c2C)CC1 | -2.82% |
| Cc1ccc2nsnc2c1NC(=O)COc1ccccc1F | 9.57% |
| O=S(=O)(NCc1ccccn1)c1ccc2ccccc2c1 | 12.9% |
| Cc1ccc(S(=O)(=O)Nc2nc(C)cc(NN)n2)cc1 | 20.5% |
| COc1cc(NC(=O)[C@H]2CSCN2C(=O)[C@@H]2CCC(=O)N2)cc(OC)c1OC | 10.8% |
| CC(C)(C)C(=O)NCCn1ccc2ccccc21 | 18% |
| CC(C)c1nc2sc3c(SCC(=O)NCc4ccco4)ncnc3c2c2c1CCC2 | 3.23% |
| COc1cc(C2NC(=O)NC(C)=C2C(=O)OCc2ccccc2)ccc1O (stereo not shown) | -3.8% |
| CN(C)CCCNc1cc(C(C)(C)C)nc2c(-c3ccccc3)cnn12 | 11.9% |
| Cc1ccc(N2CC(C(=O)OCc3ccc([N+](=O)[O-])cc3)CC2=O)cc1 (stereo not shown) | -35.7% |
| CC1(C)C(N(O)C(=O)Nc2ccccc2)N(c2cccc(Cl)c2)C(=O)N1O (stereo not shown) | 14.7% |
| COc1ccc(OC)c(NC(=O)CCN2CC(C)CC(C)C2)c1.Cl (stereo not shown) | 9.11% |
| Cc1nnc(N2C(=O)c3oc4ccccc4c(=O)c3C2c2ccco2)s1 (stereo not shown) | 3.12% |

| Structure (SMILES) | hERG current change (%, negative = inhibition) at 1uM |
| --- | --- |
| Cc1nc(NC(=O)c2cccc(-c3cc4ccccc4oc3=O)c2)ccc1Br | 11.1% |
| Cc1cc2ccccc2n1CCNC(=O)Cc1cccc2ccccc12 | 20.2% |
| CN1C(C(=O)NCc2ccco2)CC2Cn3c(nc4ccccc43)C21 (stereo not shown) | 13.4% |
| Cc1cc(N)ccc1-n1nc2ccccc2n1 | 3.57% |
| COc1ccc(Cn2c(CCC(=O)Nc3ccccc3OC)nc3cccnc32)cc1 | 1.32% |
| CC1CCC(NC(=O)C(NS(=O)(=O)c2cccc3nsnc23)C(C)C)CC1 (stereo not shown) | 10.3% |
| O=C1c2ccccc2C(=O)N1CCCn1ccnc1 | 16.3% |
| COc1ccc(CNCC(O)(c2ccc(Cl)cc2)c2ccc(Cl)cc2)cc1OC | 6.91% |
| O=C(CSc1ncccn1)NNC(=O)c1ccccc1 | 10.8% |
| CCCCOC(=O)c1ccc(S(N)(=O)=O)o1 | 1.59% |
| CN(Cc1cc([N+](=O)[O-])c2cccnc2c1O)C1CCCCC1 | -1.94% |
| CCOc1ccc(-c2noc(CCCC(N)=O)n2)cc1OC | 10.2% |
| O=C(Nc1ccc(F)cc1)NC1CCN(Cc2nnnn2Cc2ccco2)CC1 | -11.7% |
| O=C(c1cc(C2CC2)nn1-c1ccccc1)N1CCN(S(=O)(=O)c2c(F)cccc2F)CC1 | 1.9% |
| CC(C)NC(=O)CN1C(=O)C(=O)c2ccccc21 | 5.86% |
| Fc1ccc(OCCCn2ccnc2)cc1 | 14.7% |
| CCn1c(SCC(=O)Nc2ccccc2)nc2ccccc2c1=O | 14.1% |
| C=CCSc1nnc(Cc2cc(=O)[nH]c(=O)[nH]2)n1-c1cc(C)ccc1C | 4.89% |
| O=S(=O)(c1ccc(F)cc1)N1CCCC(CO)C1 (stereo not shown) | -1.09% |
| CCOc1ccc(N2C(=O)/C(=C/c3cc(OC)c(OC)c(OC)c3)N(CC(=O)OC)C2=S)cc1 | 7.14% |
| CCOc1cc(C#N)c(NC(=O)c2cccnc2Cl)cc1OCC | 4.4% |
| O=C(Nc1ccccc1Cl)Oc1ccc2ccccc2c1 | 4.1% |

From publication PMC4336329 (PLoS ONE, 2015)
